Results taken from PubChem BioAssay AID2147 (National Center for Advancing Translational Sciences (NCATS), 2009).
The campaign covered roughly 230,000 compounds. About 3,600 (1.6%) were called active. Inconclusive means that the source gave no clear call. Such entries were picked first, then a sample of the others. Calls come from the whole dose curve; as a rule, active = well fitted inhibition curve with a large enough effect (not every such curve was filed as active); inconclusive = small, poorly fitted or top-dose-only effect, or another doubt; inactive = no such curve, though single readings can be large or run the other way. Potencies beside an inconclusive call are fits to weak or partial responses and may not hold up.
Note: nearly all actives have a fitted effect of over 50% in size.
Potency is the fitted concentration of half-maximal effect; tags give direction and shape of the fitted curve.

These compounds were tested against Lysine-specific demethylase 4E (Homo sapiens) (UniProt B2RXH2) (assay: qHTS Assay for Inhibitors of Human Jumonji Domain Containing 2E (JMJD2E)). Details: JMJD2E catalytic domain, FDH-coupled NADH fluorescence (FDH is formaldehyde dehydrogenase); series mostly up to 57.1 µM.
Sequence of UniProt B2RXH2 (B2RXH2 whole entry, looked up, the tested form may be a part): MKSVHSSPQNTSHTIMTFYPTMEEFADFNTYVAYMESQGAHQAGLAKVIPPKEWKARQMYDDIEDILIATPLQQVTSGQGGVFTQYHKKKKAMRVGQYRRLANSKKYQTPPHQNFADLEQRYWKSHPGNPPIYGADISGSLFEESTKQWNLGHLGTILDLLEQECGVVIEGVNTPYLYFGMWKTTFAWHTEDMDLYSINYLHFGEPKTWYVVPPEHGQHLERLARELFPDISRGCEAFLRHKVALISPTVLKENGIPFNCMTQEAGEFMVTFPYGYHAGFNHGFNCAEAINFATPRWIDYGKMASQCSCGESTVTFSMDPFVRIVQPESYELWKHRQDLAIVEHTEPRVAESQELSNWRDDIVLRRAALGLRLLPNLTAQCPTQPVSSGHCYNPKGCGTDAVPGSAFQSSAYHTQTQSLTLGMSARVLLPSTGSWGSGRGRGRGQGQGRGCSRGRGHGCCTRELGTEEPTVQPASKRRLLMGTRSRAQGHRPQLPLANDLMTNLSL
For `COc1ccc(C(=O)Nc2sc3c(c2C(=O)NCc2ccco2)CCCC3)cc1OC`, the Potency was inconclusive: 31.6 µM [inhibitor, partial curve].
`Cc1c(C#N)c2ncnc(-c3ccccc3)c2n1-c1ccccc1` was tested, and the Potency was inconclusive: 35.5 µM [inhibitor, partial curve].
In the case of `C#CCn1c(=NC(=O)c2ccc(Cl)s2)sc2cccc(OC)c21`, the Potency is reported as inconclusive: 11.2 µM [inhibitor, partial curve].
For `O=C(c1ccccc1NS(=O)(=O)c1cccc2cccnc12)N1CCOCC1`, the Potency was “inactive”.
`COc1ccc(NC(=S)NCCCCCC(=O)C[N+](=O)[O-])cc1` was tested, and the Potency was “inactive”.
In the case of `CC(c1ccco1)N(C(=O)c1ccccc1F)c1ccccn1` (centres undefined), the Potency is reported as inconclusive: 28.2 µM [inhibitor, partial curve].
For `O=C1C2C3C=CC(C3)C2C(=O)N1c1cccc(N2C(=O)C3C4C=CC(C4)C3C2=O)n1` (centres undefined), the Potency was “inactive”.
With `O=S(=O)(NC(=S)NC1CCCCC1)c1ccc(Cl)cc1` the Potency was “inactive”.
With `O=S(=O)(NCCCCCCc1ccccc1)c1cccc2c(Cl)cccc12` the Potency was inconclusive: 31.6 µM [inhibitor, partial curve].
In the case of `COC(=O)CN(c1ccc(C)cc1)S(=O)(=O)c1c(C)[nH]c(=O)[nH]c1=O`, the Potency is reported as inconclusive: 39.8 µM [inhibitor, single point].
With `[O-]/C(=C(\C(=S)Nc1cccc2ccccc12)[n+]1cccc(CO)c1)c1ccc(Cl)s1` the Potency was active: 12.6 µM.
`Cc1nc(CNC(=O)CC2C(=O)NCCN2Cc2cccc(Oc3ccccc3)c2)cs1` (centres undefined) was tested, and the Potency was inconclusive: 28.2 µM [inhibitor, single point].
In the case of `COc1ccc(OC)c(NC(=O)Cn2c(CCC(=O)O)ccc2-c2cccs2)c1`, the Potency is reported as inconclusive: 28.2 µM [inhibitor, single point].
With `CCN1CCN(CCNC(=O)CCCCCn2c(=O)[nH]c3cc(C(=O)OC)ccc3c2=O)CC1` the Potency was inconclusive: 35.5 µM [inhibitor, single point].
For `CCOc1ccc(C2C(=O)N(C3CCCCC3)CC(=O)N2CC2CCCO2)cc1OC` (centres undefined), the Potency was inconclusive: 35.5 µM [inhibitor, single point].
With `CC1CC(C)CN(CCCNC(=O)Cc2c(C(=O)O)[nH]c3ccccc23)C1` (centres undefined) the Potency was inconclusive: 25.1 µM [inhibitor, single point].
`Cc1ccc(Nc2c(-c3ccccc3)nc3cnccn23)cc1` was tested, and the Potency was inconclusive: 28.2 µM [inhibitor, partial curve].
In the case of `N=c1oc2ccccc2cc1-c1nc2ccccc2c(=O)[nH]1`, the Potency is reported as inconclusive: 25.1 µM [inhibitor, single point].
`CCOc1c2ccc(C(=O)NCCc3ccc(C)cc3)cc2nn1CC` was tested, and the Potency was inconclusive: 28.2 µM [inhibitor, partial curve].
For `COc1cccc(CN2CCN(c3cccc(C(F)(F)F)c3)CC2)c1OC`, the Potency was inconclusive: 31.6 µM [inhibitor, single point].
For `Nc1nc(Sc2c([N+](=O)[O-])cc(C(F)(F)F)cc2[N+](=O)[O-])n[nH]1`, the Potency was “inactive”.
With `N#Cc1nn(-c2ccccc2)nc1N1CCCCC1` the Potency was inconclusive: 25.1 µM [inhibitor, partial curve].
In the case of `COc1ccc(NC(=O)c2cc3c(s2)CCC(C)C3)cc1S(=O)(=O)N1CCOCC1` (centres undefined), the Potency is reported as inconclusive: 35.5 µM [inhibitor, single point].
`Cc1ccc(/C=N/NC(=O)CSc2nnc(-c3ccc(Cl)cc3)n2-c2ccccc2)o1` was tested, and the Potency was “inactive”.
In the case of `O=C(N/N=C/c1ccncc1)c1cccc(S(=O)(=O)Nc2ccc(Cl)cc2)c1`, the Potency is reported as active: 3.55 µM.
`CCc1ccc2nc(NC(=O)c3ccc(N4C(=O)CCC4=O)cc3)sc2c1` was tested, and the Potency was inconclusive: 14.1 µM [inhibitor, partial curve].
`Cc1ccc(C)n1-c1ccc(C(=O)NN)cc1` was tested, and the Potency was inconclusive: 39.8 µM [inhibitor, single point].
`NC(=O)COC(=O)c1ccccc1Nc1ccc(SC(F)F)cc1` was tested, and the Potency was inconclusive: 35.5 µM [inhibitor, single point].
`COc1ccccc1NC(=O)CC(=O)CSc1nnc(-c2ccc(C)cc2)n1C` was tested, and the Potency was inconclusive: 39.8 µM [inhibitor, single point].
`Cc1ccc2[nH]c(=O)c(CN(Cc3ccccc3)Cc3nnnn3C3CCCC3)cc2c1` was tested, and the Potency was inconclusive: 39.8 µM [inhibitor, single point].
`Cc1ccc(S(=O)(=O)NCc2ccc(C(=O)N3CCCC3)cc2)cc1` was tested, and the Potency was “inactive”.
With `C/C(=N\NC(=O)CNc1cccc2ccccc12)c1ccccc1` the Potency was inconclusive: 39.8 µM [inhibitor, single point].
With `CC1=NN(c2ccccc2)C(=O)/C1=C\c1cc(C)n(-c2ccccc2)c1C` the Potency was “inactive”.
`CCOC(=O)c1cnn(-c2nc(-c3ccc(C)cc3)cs2)c1C(F)(F)F` was tested, and the Potency was inconclusive: 35.5 µM [inhibitor, single point].
With `O=S(=O)(NC1CCCC1)c1ccc(S(=O)(=O)N2CCN(c3ccccc3)CC2)cc1` the Potency was “inactive”.
For `O=C(NC1CCN(C(=O)c2cccs2)CC1)c1ccccc1`, the Potency was “inactive”.
For `O=C(c1ccc(F)cc1)N1CCCCC(Sc2nnc3ccccn23)C1=O` (centres undefined), the Potency was “inactive”.
`Cc1cccc(NC(=S)N(CCN(C)C)Cc2cc3cc(C)ccc3[nH]c2=O)c1` was tested, and the Potency was inconclusive: 28.2 µM [inhibitor, single point].
`COc1ccc(-c2ccnc3nc(/N=C/N(C)C)nn23)cc1` was tested, and the Potency was inconclusive: 28.2 µM [inhibitor, partial curve].
`COC(=O)[C@@]1(C)C=C[C@@H](Cc2ccccc2)N1C` was tested, and the Potency was inconclusive: 25.1 µM [inhibitor, single point].
With `CCC(=Nc1ccc(N)cc1)C1=C(O)C(C(=O)OC)C(C)(C)CC1=O` (centres undefined) the Potency was active: 8.91 µM.
`O=C(OCc1cc2ccccc2[nH]c1=O)c1ccco1` was tested, and the Potency was inconclusive: 39.8 µM [inhibitor, single point].
For `COCCCNC(=S)NCCNc1nc2c(C)c(C)ccc2cc1C#N`, the Potency was inconclusive: 28.2 µM [inhibitor, partial curve].
In the case of `CCN1CCC[C@H]1CNC(=O)c1cc(S(N)(=O)=O)ccc1OC`, the Potency is reported as “inactive”.
